{
  "source": "PubChem BioAssay AID686979",
  "about": "(National Center for Advancing Translational Sciences (NCATS), 2013)",
  "note": "Values joined by “and” are separate entries in the source; they are usually repeats but may differ in a detail not shown here. Identical values can stand only once. Among all 420,000 compounds or so, about 50,000 (12%) were called active. This list was built around the results that the source calls inconclusive (neither active nor inactive); the mix of calls is not that of the screen. The call rests on the fitted dose curve; in most records, active means well fitted inhibition curve with a large enough effect; inconclusive means small, poorly fitted or top-dose-only effect; inactive means flat fitted curve, though single readings scatter. Potencies beside an inconclusive call are fits to weak or partial responses and may not hold up. On the % scale 0 is the no-effect control and ±100 the full control effect; potency means the concentration at half of the fitted maximal effect; tags describe the fitted curve by direction and shape.",
  "data": [
    {"experiment": "qHTS for Inhibitors of human tyrosyl-DNA phosphodiesterase 1 (TDP1): qHTS in cells in presence of CPT; further: nearly all actives have a fitted effect of over 55% in size", "details": "chicken DT40 Tdp1-/-;hTDP1 cells + 20 nM CPT, ATP luminescence, 48 h; activity change, negative = growth inhibition: at 46.2 µM (top of the series)", "method_in_brief": "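Chicken DT40 Tdp1-/- cells complemented with human TDP1, 400 cells/well, exposed to compounds plus 20 nM camptothecin for at least 48 h at 37 C; viability read as ATP content by CellTiter-Glo luminescence.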", "values": [
      {"smiles": "CCOc1ccc(-c2cccc(NS(=O)(=O)c3ccc([N+](=O)[O-])cc3)c2)nn1", "Potency": "inconclusive: 20.6 µM [inhibitor, partial curve]"},
      {"smiles": "N#Cc1ccc(C23CC4(C2)[C@H](CN(CC2CCCCC2)[C@@H]4c2ccccc2)C3c2ccc(Cl)nc2)cc1", "note": "(some centres not stated)", "Potency": "active: 13 µM"},
      {"smiles": "COc1cc(NS(=O)(=O)c2ccc3c(c2)CCCN3C(C)=O)cc(OC)c1OC", "Potency": "active: 8.2 µM"},
      {"smiles": "Cc1cc(C)cc(-n2nnc(-c3nc(-c4ccccc4F)no3)c2C)c1", "Potency": "inconclusive: 20.6 µM [inhibitor, single point]"},
      {"smiles": "O=C(Nc1ccc2c(c1)OCO2)C1CCN(C(=O)CSc2ncnc3ccccc23)CC1", "Potency": "inconclusive: 29.1 µM [inhibitor, single point]"},
      {"smiles": "Cc1ccc(CN2CCN(CC(=O)NCc3ccccc3Cl)C2=O)cc1", "activity change, negative = growth inhibition": "inactive: 0.85%"},
      {"smiles": "O=C1CCC(C(=O)Nc2cccc(S(=O)(=O)Nc3ccccc3F)c2)=NN1", "Potency": "active: 18.4 µM"},
      {"smiles": "O=C1Nc2ccccc2-c2nnnn2C1N1CCC(Cc2ccccc2)CC1", "note": "(configuration not stated)", "Potency": "inconclusive: 29.1 µM [inhibitor, single point]"},
      {"smiles": "FC(F)Sc1ccc(NC(=S)NC2CCCC2)cc1", "Potency": "inconclusive: 29.1 µM [inhibitor, single point]"},
      {"smiles": "O=C(CCC(=O)c1cccs1)NNC(=O)c1ccc(Cl)cc1", "activity change, negative = growth inhibition": "inactive: -15.2%"},
      {"smiles": "COc1ccc(OC)c(N(CC(=O)Nc2cccnc2)S(=O)(=O)c2ccccc2)c1", "Potency": "inconclusive: 10.3 µM [inhibitor, partial curve, poor fit]"},
      {"smiles": "O=C(c1ccc(=O)[nH]n1)N1CCc2ccccc2C1", "activity change, negative = growth inhibition": "inactive: -3.21%"},
      {"smiles": "O=C(Nc1ccc(F)c(Cl)c1)c1cc(S(=O)(=O)N2CCCc3ccccc32)ccc1F", "Potency": "active: 13 µM"},
      {"smiles": "O=C1c2c(-c3ccc(Br)cc3)noc2CCN1Cc1cn(-c2ccccc2)nn1", "Potency": "active: 20.6 µM"},
      {"smiles": "Cc1cccc(C)c1-n1cccc1/C=C1\\SC(=S)N(c2cccc(C(=O)O)c2)C1=O", "Potency": "inconclusive: 16.4 µM [inhibitor, partial curve, poor fit]"},
      {"smiles": "COC(=O)c1ccc(C(=O)OC)c(NC(=O)CN2CCCCC2)c1", "Potency": "inconclusive: 29.1 µM [inhibitor, single point]"},
      {"smiles": "CCOc1ccccc1NC(=O)CN1C(=O)C2(SCC(=O)N2c2cccc(F)c2)c2ccccc21", "note": "(configuration not stated)", "Potency": "inconclusive: 29.1 µM [inhibitor, single point]"},
      {"smiles": "CCC(=O)Nc1cc(C(=O)O)ccc1Sc1ccc(C)cc1", "activity change, negative = growth inhibition": "inactive: -5.96%"},
      {"smiles": "COc1ccc(C(=O)/C(=C/O)N=Nc2ccc(F)cc2)cc1", "Potency": "inconclusive: 29.1 µM [inhibitor, single point]"},
      {"smiles": "CCOc1cc(C(=O)Nc2ccc3c4c(cccc24)C(=O)N3CC)cc(OCC)c1OCC", "Potency": "inconclusive: 29.1 µM [inhibitor, single point]"},
      {"smiles": "O=C(C[C@H]1CC[C@@H]2[C@H](COC[C@H](O)CN2Cc2cccc(C(F)(F)F)c2)O1)NCCc1ccccc1", "Potency": "active: 20.6 µM"},
      {"smiles": "CCSc1nnc(CNC(=O)c2ccccc2F)n1-c1ccccc1OC", "activity change, negative = growth inhibition": "inactive: 13%"},
      {"smiles": "COCCCn1nnnc1SCC(=O)N1CCN(C(=O)c2ccco2)CC1", "activity change, negative = growth inhibition": "inactive: -5.17%"},
      {"smiles": "Cc1ccccc1OCCn1c(=S)[nH]c2ccccc21", "Potency": "inconclusive: 18.4 µM [inhibitor, single point]"},
      {"smiles": "Cc1cnc(C(=O)Nc2ccc(C)c(S(=O)(=O)N(C)C)c2)cn1", "Potency": "inconclusive: 23.1 µM [inhibitor, partial curve]"},
      {"smiles": "COc1ccc(N2CCN(S(=O)(=O)c3ccc4c(c3)CCCC4)CC2)c([N+](=O)[O-])c1", "Potency": "active: 16.4 µM"},
      {"smiles": "CC1CC(C)CN(C(=O)COC(=O)c2cc3ccccc3cc2O)C1", "note": "(configuration not stated)", "Potency": "inconclusive: 25.9 µM [inhibitor, single point]"},
      {"smiles": "COc1ccc(NC(=O)c2sc3nc(C)c(C(=O)Nc4ccc(Cl)cc4)c(-c4ccc(Br)cc4)c3c2N)cc1", "Potency": "inconclusive: 5.17 µM [inhibitor, single point]"},
      {"smiles": "CCCP(=O)(CCC)CCP(=O)(c1ccccc1)c1ccccc1", "activity change, negative = growth inhibition": "inactive: -3.81%"},
      {"smiles": "CCOC(Cn1c(-c2ccc(OC)cc2)nc2ccccc21)OCC", "Potency": "active: 23.1 µM"},
      {"smiles": "CC1CCc2[nH]c3ccc(C(=O)N(C)CC(=O)Nc4ccccc4C(F)(F)F)cc3c2C1", "note": "(configuration not stated)", "Potency": "inconclusive: 23.1 µM [inhibitor, single point]"},
      {"smiles": "CC(=O)c1cccc(-c2ccc3c(=O)[nH]c(Nc4ccccc4)cc3c2)c1", "Potency": "inconclusive: 29.1 µM [inhibitor, single point]"},
      {"smiles": "O=C(COC(=O)c1ccc(F)cc1F)Nc1cccc(S(=O)(=O)N2CCOCC2)c1", "Potency": "inconclusive: 18.4 µM [inhibitor, single point]"},
      {"smiles": "CCc1ccc(C(O)(CNCc2ccccc2)c2ccccc2)cc1", "note": "(configuration not stated)", "Potency": "active: 23.1 µM"},
      {"smiles": "COc1ccccc1CNS(=O)(=O)c1cc2c3c(c1)CCN3C(=O)CC2", "Potency": "inconclusive: 11.6 µM [inhibitor, partial curve] and inconclusive: 29.1 µM [inhibitor, single point]"},
      {"smiles": "CCCN(C(=O)c1cccc(-n2cccc2)c1)c1c(N)n(Cc2ccccc2)c(=O)[nH]c1=O", "activity change, negative = growth inhibition": "inactive: -8.62%"},
      {"smiles": "CCCC(CCC)C(=O)NNc1cc(=O)c2c(=O)n(C)c(=O)n(C)c2[nH]1", "Potency": "inconclusive: 29.1 µM [inhibitor, single point]"},
      {"smiles": "CCC(c1nnnn1C(C)(C)CC)N(CCCN1CCOCC1)Cc1cc2cccc(C)c2[nH]c1=O", "note": "(configuration not stated)", "Potency": "active: 14.1 µM"},
      {"smiles": "COC(=O)c1ccccc1NC(=O)Cn1nnc2sc(-c3ccccc3)cc2c1=O", "activity change, negative = growth inhibition": "inactive: -2.58%"},
      {"smiles": "Cc1cccc(NC(=O)/C=C/c2ccc(Cl)cc2)n1", "Potency": "inconclusive: 29.1 µM [inhibitor, single point]"},
      {"smiles": "CCOC(=O)C1(Cc2cccc(OC)c2)CCN(Cc2cccnc2)CC1", "Potency": "inconclusive: 16.4 µM [inhibitor, single point]"},
      {"smiles": "COc1cccc(COc2ccccc2C2Nc3ccc(Br)cc3C(=O)N2NC(=O)c2ccncc2)c1", "note": "(configuration not stated)", "Potency": "inconclusive: 29.1 µM [inhibitor, single point]"},
      {"smiles": "CCn1c(NC(=O)c2nn(C)cc2Br)nc2ccccc21", "Potency": "inconclusive: 20.6 µM [inhibitor, partial curve]"},
      {"smiles": "COc1ccccc1C(=O)Nc1nc(-c2ccccc2)ns1", "activity change, negative = growth inhibition": "inactive: -29.3%"},
      {"smiles": "Cc1ccc(N2CCC3CC2c2cc(-c4ccc(C(F)(F)F)cc4)ccc23)cc1", "note": "(configuration not stated)", "Potency": "inconclusive: 25.9 µM [inhibitor, single point]"},
      {"smiles": "COc1ccccc1C(=O)NCCn1cc(SCc2ccccc2Cl)c2ccccc21", "Potency": "inconclusive: 29.1 µM [inhibitor, single point]"},
      {"smiles": "Cc1cc2c(=O)n(C)c(SCC(=O)NCC3CCCO3)nc2s1", "note": "(configuration not stated)", "activity change, negative = growth inhibition": "inactive: 5.88%"},
      {"smiles": "CC(C)CC(=O)N1CCN(c2ccc([N+](=O)[O-])c(NCc3ccccc3)c2)CC1", "Potency": "inconclusive: 29.1 µM [inhibitor, single point]"},
      {"smiles": "CC(=O)Nc1ccc(NC(=O)C(C)OC(=O)C2(c3ccc(F)cc3)CCCC2)cc1", "note": "(configuration not stated)", "Potency": "inconclusive: 29.1 µM [inhibitor, single point]"},
      {"smiles": "CCOc1ccc(/C=N/NC(=O)c2ccccc2O)cc1CN1CC2CC(C1)c1cccc(=O)n1C2", "note": "(configuration not stated)", "Potency": "inconclusive: 32.6 µM [inhibitor, single point]"},
      {"smiles": "O=C(CCS(=O)(=O)Cc1ccccc1)Nc1nc2c(s1)CCCC2", "Potency": "inconclusive: 29.1 µM [inhibitor, single point]"},
      {"smiles": "Cc1ccc(C(=O)ON=C2CCN(S(=O)(=O)c3ccccc3)CC2)cc1", "Potency": "inconclusive: 29.1 µM [inhibitor, single point]"},
      {"smiles": "CCOC(=O)C1CCN(C(=O)CSc2nc(N)cc(=O)[nH]2)CC1", "activity change, negative = growth inhibition": "inactive: 3.3%"},
      {"smiles": "COC(=O)CNC(c1ccccc1)c1cc(Cl)ccc1NC(=O)c1cccc(Cl)c1", "note": "(configuration not stated)", "Potency": "inconclusive: 29.1 µM [inhibitor, single point]"},
      {"smiles": "CCC(C)C(NC(N)=O)C(=O)Nc1ccc(C)c(Cl)c1", "note": "(configuration not stated)", "activity change, negative = growth inhibition": "inactive: 2.41%"},
      {"smiles": "C=CCn1c(CCCNC(=O)C(C)(C)C)nc2ccccc21", "Potency": "inconclusive: 29.1 µM [inhibitor, single point]"},
      {"smiles": "CC1CN(S(=O)(=O)c2cccc(-c3cn4ccccc4n3)c2)CC(C)O1", "note": "(configuration not stated)", "Potency": "inconclusive: 23.1 µM [inhibitor, partial curve]"},
      {"smiles": "CCc1ccc(OCC(=O)Nc2ccc(N3CCN(C(=O)c4ccccc4)CC3)cc2)cc1", "Potency": "inconclusive: 3.66 µM [inhibitor, full curve, poor fit]"},
      {"smiles": "CCc1cc(=O)oc2c3c(cc(OCC(=O)N[C@H](C(=O)O)[C@H](C)CC)c12)OC(C)(C)CC3", "activity change, negative = growth inhibition": "inactive: 13%"},
      {"smiles": "Cc1cccc(NC(=O)c2ccc(N3C(=O)C4C5C=CC(C6CC56)C4C3=O)cc2)c1", "note": "(configuration not stated)", "Potency": "inconclusive: 14.6 µM [inhibitor, partial curve]"},
      {"smiles": "CCOc1cc(/C=N/NC(=O)c2ccc(O)cc2)ccc1Oc1nc(Cl)ncc1F", "Potency": "active: 20.6 µM"},
      {"smiles": "c1ccc(CNc2ccc3c(c2)ncn3C2CCCCC2)nc1", "Potency": "inconclusive: 16.4 µM [inhibitor, single point]"},
      {"smiles": "O=C(CSC1=NNC(c2ccccn2)S1)Nc1ccccc1", "note": "(configuration not stated)", "Potency": "active: 2.06 µM"},
      {"smiles": "COC(=O)c1ccc(CSC2=NC[C@@H]3[C@@H]4C(=O)N(Cc5ccccc5)C(=O)[C@@H]4[C@](C)(C(=O)OC)N23)cc1", "Potency": "inconclusive: 29.1 µM [inhibitor, single point]"},
      {"smiles": "CCCCC(=O)Nc1ccc(C(=O)NNC(=S)NC(=O)c2cccs2)cc1", "Potency": "inconclusive: 25.9 µM [inhibitor, single point]"},
      {"smiles": "CN1C(=O)C(C)(C)c2cc(S(=O)(=O)N3CCCC(C(=O)Nc4ccc(Cl)cc4)C3)ccc21", "note": "(configuration not stated)", "Potency": "inconclusive: 29.1 µM [inhibitor, single point]"},
      {"smiles": "COc1ccc(Cn2c(C(=O)O)c(CNC3CCCCCC3)c3ccc(OC)cc32)cc1", "Potency": "active: 16.4 µM"}
    ]}
  ]
}
